Experimental data from the supplement of paper PMC4166925.
± gives the standard deviation of the averaged measurements. Over roughly 33,000 sequences, “E-score (dimensionless, -0.5 to 0.5)” has its median near -0.049; the highest 2% begin near 0.37. The list shows a part of the results.

Tested on: T1, PmTbr T-box DNA-binding domain (GST fusion)
T1 sequence: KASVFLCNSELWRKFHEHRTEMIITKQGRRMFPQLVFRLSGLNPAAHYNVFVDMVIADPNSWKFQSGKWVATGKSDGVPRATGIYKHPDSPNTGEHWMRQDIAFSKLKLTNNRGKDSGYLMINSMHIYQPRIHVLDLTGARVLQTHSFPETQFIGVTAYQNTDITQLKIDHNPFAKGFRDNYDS
Experiment: PBM E-score of 8-mer (E-score (dimensionless, -0.5 to 0.5)); Tbr is Tbrain of the sea star Patiria miniata (Pm) or the sea urchin Strongylocentrotus purpuratus (Sp); higher = stronger binding preference; most listed sequences are background and not binding sites
Conditions: the construct has about 5 more residues each side
Experimental: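 Universal protein-binding microarray (Agilent AMADID 016060, 60-bp probes with a 35-bp variable region) incubated with 200 nM GST-fused Patiria miniata Tbr T-box DNA-binding domain (residues 272-466) in PBS pH 7.5. Scored for every ungapped 8-mer (given with its reverse complement) by the Universal PBM Analysis Suite as E-score (modified Wilcoxon-Mann-Whitney enrichment, range -0.5 to 0.5; >0.45 counts as bound) and Z-score of median probe intensity. Two replicate arrays (datasets 1 and 2).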

Row | Sequence | PBM E-score of 8-mer
1 | ACTAGAAT | -0.145 ± 0.019
2 | CAAACCGC | 0.0543 ± 0.051
3 | ACGCGCAA | 0.00585 ± 0.00035
4 | GTGACTCA | 0.114 ± 0.0013
5 | ACCACCTG | 0.262 ± 0.056
6 | GCAGTCAC | 0.148 ± 0.048
7 | CACTCATA | 0.161 ± 0.033
8 | CGATGCCA | -0.0209 ± 0.052
9 | AATTGTTG | 0.103 ± 0.06
10 | GATAAAGA | -0.136 ± 0.046
11 | ACAGATTG | -0.0822 ± 0.024
12 | AAGGGCTC | -0.21 ± 0.039
13 | CAAAGTAA | -0.173 ± 0.019
14 | ACCCTTCG | -0.0575 ± 0.0092
15 | ACTTCAAA | -0.00641 ± 0.024
16 | AATTTGGA | -0.145 ± 0.087
17 | ACCAATGC | 0.0425 ± 0.027
18 | CGATATAA | -0.0508 ± 0.032
19 | CCGGAAAA | -0.229 ± 0.022
20 | AGAATTGG | -0.222 ± 0.0016
21 | CCATCCGG | -0.192 ± 0.012
22 | CTACACAG | -0.229 ± 0.11
23 | GTAGGCAC | -0.0201 ± 0.055
24 | ACTTTCGG | 0.0864 ± 0.0095
25 | AACGATTC | -0.0317 ± 0.032
26 | CAAGTCGG | -0.0367 ± 0.12
27 | CCGGATAG | -0.145 ± 0.011
28 | ACCAAAAG | 0.0188 ± 0.099

Row | Sequence | PBM E-score of 8-mer
29 | AATGCAGC | -0.175 ± 0.038
30 | GGGGCATA | -0.276 ± 0.013
31 | TCATAAGA | -0.171 ± 0.025
32 | TACATCCA | -0.0803 ± 0.022
33 | CGCGGTAC | 0.0216 ± 0.036
34 | ACCGAGTG | 0.00357 ± 0.044
35 | TAATTTCA | 0.0397 ± 0.061
36 | AGGCTGCG | 0.0356 ± 0.014
37 | CCTGGGCC | -0.358 ± 0.044
38 | CCAGTAAA | -0.0613 ± 0.0075
39 | GACTCTAA | -0.0315 ± 0.0096
40 | AGTATTCA | -0.12918 ± 8.5e-05
41 | TCATCCCA | 0.0516 ± 0.054
42 | CGACCGGA | 0.0935 ± 0.032
43 | GTGGAAGA | -0.195 ± 0.072
44 | TATTGAGA | -0.146 ± 0.028
45 | CCTTTAAG | -0.228 ± 0.031
46 | ACCGGCGG | -0.104 ± 0.017
47 | ACTGGCGG | -0.049 ± 0.07
48 | GTAAGTCA | -0.0674 ± 0.031
49 | ACAGAGAA | 0.0164 ± 0.061
50 | CGGCCGAC | -0.0336 ± 0.091
51 | CTAGGTGC | 0.403 ± 0.008
52 | CGAAAAAG | 0.0183 ± 0.074
53 | ACGCCCGA | 0.241 ± 0.0051
54 | ACTTCCCA | 0.235 ± 0.01
55 | GCATCAAC | 0.0651 ± 0.026
